Consider 24 molecules from publication PMC4336329 (PLoS ONE, 2015).

The structures appear in SMILES notation. Out of some 310,000 compounds screened, about 14,000 (4.5%) showed an effect of 50% or more. The effect is printed as a negative number. The list shows a part of the results.
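Further: peak tail current of the secondary pulse compared with the same well before compound.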

The target of the assay is human ether-à-go-go-related gene (hERG) potassium channel (human, UniProt Q12809). Kind of assay: primary screen, population patch clamp on CHO cells stably expressing hERG.
Sequence of human ether-à-go-go-related gene (hERG) potassium channel (Q12809 whole entry, looked up): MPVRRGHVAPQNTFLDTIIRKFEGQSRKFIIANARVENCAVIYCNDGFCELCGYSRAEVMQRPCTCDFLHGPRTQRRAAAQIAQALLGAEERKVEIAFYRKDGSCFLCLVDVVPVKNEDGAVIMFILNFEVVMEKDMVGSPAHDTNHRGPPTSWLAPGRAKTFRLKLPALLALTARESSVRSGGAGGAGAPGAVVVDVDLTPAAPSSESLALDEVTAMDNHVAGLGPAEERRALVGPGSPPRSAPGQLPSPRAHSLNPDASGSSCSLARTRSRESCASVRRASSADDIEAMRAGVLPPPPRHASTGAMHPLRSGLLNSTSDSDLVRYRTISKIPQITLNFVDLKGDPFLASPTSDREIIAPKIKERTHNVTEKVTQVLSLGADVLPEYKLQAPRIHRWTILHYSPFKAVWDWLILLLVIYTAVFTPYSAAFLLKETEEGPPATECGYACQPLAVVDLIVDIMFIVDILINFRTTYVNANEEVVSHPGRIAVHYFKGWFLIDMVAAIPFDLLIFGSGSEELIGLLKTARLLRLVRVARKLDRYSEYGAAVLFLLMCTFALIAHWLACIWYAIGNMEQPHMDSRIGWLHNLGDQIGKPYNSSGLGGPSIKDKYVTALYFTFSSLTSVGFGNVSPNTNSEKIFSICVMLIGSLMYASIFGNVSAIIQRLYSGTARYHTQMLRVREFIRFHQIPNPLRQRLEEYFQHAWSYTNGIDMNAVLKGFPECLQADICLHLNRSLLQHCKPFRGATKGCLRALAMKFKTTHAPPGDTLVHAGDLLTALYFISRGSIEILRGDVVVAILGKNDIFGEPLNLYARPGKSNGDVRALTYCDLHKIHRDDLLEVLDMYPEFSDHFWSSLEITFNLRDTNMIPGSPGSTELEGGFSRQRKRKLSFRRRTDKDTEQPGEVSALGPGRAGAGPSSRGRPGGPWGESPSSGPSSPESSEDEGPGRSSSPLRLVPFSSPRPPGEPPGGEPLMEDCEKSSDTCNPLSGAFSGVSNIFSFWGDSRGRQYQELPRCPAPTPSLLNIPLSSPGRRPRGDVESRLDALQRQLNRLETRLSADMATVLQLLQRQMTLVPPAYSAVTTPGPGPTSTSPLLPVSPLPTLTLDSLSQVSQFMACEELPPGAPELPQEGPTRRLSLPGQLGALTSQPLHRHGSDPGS
Consider `O=C(/C=C/c1ccccc1)NCC(=O)N/N=C/c1cccs1`, for which the “hERG current change (%, negative = inhibition) at 10uM” value is -3.21%.
To `O=C(O)CCCC(=O)Nc1cccc(-c2nc3ccccc3[nH]2)c1` belongs 34.1%.
Regarding `O=C(CC(c1ccccc1)c1ccccc1)NCC1CCCO1` (stereo not drawn), the “hERG current change (%, negative = inhibition) at 10uM” value stood at 8.09%.
Consider `Cc1nc(Nc2nc3ccccc3o2)nc(C)c1C(=O)Nc1ccc(F)cc1`, for which the “hERG current change (%, negative = inhibition) at 10uM” value is -14.6%.
To `Cc1ccc(CCNC(=O)C2CC(c3ccccc3C(F)(F)F)=NO2)cc1` (stereo not drawn) belongs -14.6%.
To `O=C(c1cc(-c2ccccc2)nn1-c1ccccc1)N1CCN(S(=O)(=O)c2cccc(F)c2)CC1` belongs 17.7%.
Take `CC1NC2(C(=O)N(Cc3ccccc3)c3ccccc32)C2C(=O)N(c3ccccc3)C(=O)C12` (stereo not drawn): the “hERG current change (%, negative = inhibition) at 10uM” value is reported as 12.6%.
Regarding `COc1ccc(CNCC(O)COCc2cccs2)cc1` (stereo not drawn), the “hERG current change (%, negative = inhibition) at 10uM” value is recorded as -60.8%.
The same measure for `COc1ccc(Oc2c(C)oc3cc(OC(=O)N(C)C)ccc3c2=O)cc1`: 8.54%; for `CN(C)C(=O)c1cc(S(=O)(=O)N(C)C)c(Cl)cc1N1CCCC1`: -3.8%; for `O=C(NCc1ccccn1)C1Nc2ccc(C(F)(F)F)cc2C2C=CCC12` (stereo not drawn): 0.195%.
To `CCCCCOC(=O)C1=C(C)NC(=O)NC1c1ccc(N(C)C)cc1` (stereo not drawn) belongs 12.5%; to `Cc1ccccc1NC1=NC2(CCCC2)N=C(N)N1`, -5.43%.
The same measure for `Cc1c(C)c2cc3c4c(oc3c(C)c2oc1=O)CCCC4`: 1.96%.
In the case of `COc1cc(NS(=O)(=O)c2ccc(NC(C)=O)cc2)cc(OC)c1`, the “hERG current change (%, negative = inhibition) at 10uM” value is reported as 9.3%.
To `Cc1cccc(C(=O)N2CCCN(C(=O)c3cccc(C)c3)CC2)c1` belongs -0.26%; to `O=C(OCC(=O)N1CCCc2ccccc21)c1ccc(Cl)nc1`, -3.94%; to `C/C(=N\NC(=O)CCc1c(C)n[nH]c1C)c1ccc([N+](=O)[O-])cc1`, -10.8%.
For `COc1ccc(S(=O)(=O)NCC(c2ccc3c(c2)OCO3)N2CCOCC2)cc1` (stereo not drawn), the “hERG current change (%, negative = inhibition) at 10uM” value is recorded as -6.41%.
As to `O=C(Nc1ccc(Cl)cc1)OCc1ccccn1`, the “hERG current change (%, negative = inhibition) at 10uM” value was 10.3%.
The same measure for `Cn1nnnc1Sc1ncnc2scc(-c3ccccc3C(F)(F)F)c12`: -13.2%; for `COC(=O)C/C(C)=N/Nc1ccc(S(=O)(=O)N2CCCC2)cc1[N+](=O)[O-]`: 6.76%.
The same measure for `O=C(Nc1ccccc1)c1cccc(S(=O)(=O)N2CCCCC2)c1`: 0.607%; for `CCOC(=O)N1CC=C2C(C#N)=C(N)C(C#N)(C#N)[C@H](c3ccccc3OCC)[C@H]2C1`: -7.13%.
